Results: PubChem BioAssay AID1745853 (National Center for Advancing Translational Sciences (NCATS), 2022)
The other results are listed elsewhere or left out. Shown are side measurements of this screen, not its main read-out; they come without a call.

Legend:
Test in all cases: Primary Screen for Target Class Profiling of Small Molecule Inhibitors of Methyltransferases
[1] = biological target: Glycine N-methyltransferase (Homo sapiens) (UniProt Q14749); conditions: purified enzyme, MTase-Glo SAH luminescence; measured here: GNMT inhibition; at 40 µM; stronger effect = lower value
Outline: (§1)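 Each enzyme was reacted with SAM and its substrate, with compounds tested once at 40 uM; SAH formed was read by MTase-Glo luminescence.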

[2] = biological target: Guanidinoacetate N-methyltransferase (Homo sapiens) (UniProt Q14353); conditions: purified enzyme, MTase-Glo SAH luminescence; measured here: GAMT inhibition; at 40 µM; stronger effect = lower value
Outline: as §1

[3] = biological target: Histamine N-methyltransferase (Homo sapiens) (UniProt P50135); conditions: purified enzyme, MTase-Glo SAH luminescence; measured here: HNMT inhibition; at 40 µM; stronger effect = lower value
Outline: as §1

[4] = biological target: Nicotinamide N-methyltransferase (Homo sapiens) (UniProt P40261); conditions: purified enzyme, MTase-Glo SAH luminescence; measured here: NNMT inhibition; at 40 µM; stronger effect = lower value
Outline: as §1

[5] = biological target: Phenylethanolamine N-methyltransferase (Homo sapiens) (UniProt P11086); conditions: purified enzyme, MTase-Glo SAH luminescence; measured here: PNMT inhibition; at 40 µM; stronger effect = lower value
Outline: as §1
% is scaled to controls: 0 for no effect and ±100 for the full control effect.

Row | Compound | activity change, negative = inhibition [1] [%] | activity change, negative = inhibition [2] [%] | activity change, negative = inhibition [3] [%] | activity change, negative = inhibition [4] [%] | activity change, negative = inhibition [5] [%]
1 | COc1ccc(-c2nc(-c3ccccc3)nc3c2CN([S+](=O)([O-])c2cccs2)CC3)cc1 | -6.34 | -9.41 | -3.16 | -19.5 | -12.7
2 | COc1cc(C(=O)OC[C@H]2O[C@@H](OC(C)(C)C(=O)O)[C@H](O)[C@@H](O)[C@@H]2O)cc(OC)c1O | 3.71 | 6.17 | 9.66 | -6.29 | 8.06
3 | CCC(C)NC(=O)c1ccc2c(=O)n(C)c3nnc(SCC(=O)NCc4ccccc4)n3c2c1 (stereo not given) | 1.95 | 0 | -0.878 | -5.27 | 1.71
4 | Cc1cc(C[C@@H]2COC[C@@H]2NC(=O)CCc2nc(-c3ccco3)no2)on1 | -5.74 | 2.69 | 0.97 | -1.67 | -1.55
5 | COc1cc(-c2nccc3c(=O)cc(N4CCOCC4)oc23)ccn1 | 0.203 | -1.5 | 1.27 | -5.39 | 9.87
6 | CC(C)OC(=O)C(C)Oc1ccc2c(=O)c(Oc3ccccc3Br)c(C(F)(F)F)oc2c1 (stereo not given) | -2.91 | 3.68 | -1.74 | -1.79 | -4.05
7 | CCN1CCC(N2CC(Oc3cccc(C(=O)NCC4CC4)c3)C2)CC1 | 0.199 | -3.13 | -6.57 | -5.59 | 0.072
8 | COc1cc(C(=O)NC(=S)Nc2cccc(NC(=O)c3ccccc3)c2)cc(OC)c1OC | -4.15 | 1.59 | 9.65 | -7.19 | 2.8
9 | CC(=O)Nc1ccc(NC(=O)c2cccc(CN3CCCC(C#N)C3)c2)cc1 (stereo not given) | -5.77 | -1.62 | -0.488 | -0.972 | -2.18
10 | Cc1oc(C(O)c2ccccc2)nc1C(=O)Nc1ccc(C(=O)Nc2ccccc2)cc1 (stereo not given) | -12.8 | -10.3 | -5.77 | -16.2 | 4
11 | CC1(C)CC2C3=CCC4C5(C)CCC(OC6OC(C(=O)O)C(O)C(O)C6OC6OC(CO)C(O)C(O)C6OC6OC(CO)C(O)C(O)C6O)C(C)(CO)C5CCC4(C)C3(C)CCC2(C)C(OC2OCC(O)C(OC3OC(CO)C(O)C(O)C3O)C2O)C1O (stereo not given) | 2.67 | 0.177 | 7.35 | -12.5 | -2.31
12 | CCCCS(=O)(=O)N[C@@H]1CN(Cc2ccncc2)C[C@H]1CN(C)C | -6.03 | -8.08 | -9.75 | -5.63 | -9.59
13 | CN1C(=O)c2cc(C(=O)N3CCN(c4ccccc4)CC3)nn2CC1(C)C(=O)NC1CCCCC1 (stereo not given) | -5.63 | -1.67 | -2.76 | -7.67 | -7.18
14 | CC(C)CCNC(=O)c1ccc2c(=O)[nH]c3c(C(=O)NC(C)C)sc(=S)n3c2c1 | -18.6 | 0 | -7.37 | -31 | -29.4
15 | CNC(=O)CCn1ccc2cc(S(=O)(=O)N3CCC(C)CC3)ccc21 | 1.83 | 0 | 1.37 | -1.1 | -2.9
16 | NC1CCCCN(C(=O)c2ccc3n[nH]nc3c2)C1 (stereo not given) | 1.76 | 3.2 | 3.55 | -1.93 | 1.53
17 | COCC1CN(C)CC12CCN(C(=O)CC1=CCCCC1)CC2 (stereo not given) | -1.51 | -0.273 | -8.5 | -6.58 | 0.413
18 | COc1cccc(N2CCN(C(=O)CCC[C@@H]3[C@H]4CCCN5CCC[C@@H](CN3C)[C@@H]45)CC2)c1 | 0.721 | 1.47 | -24.2 | -5.05 | 14.1
19 | CC1(C)CCC2(C(=O)O)CCC3(C)C(=CCC4C5(C)CCC(O)C(C)(CO)C5C(O)CC43C)C2C1 (stereo not given) | 0.937 | 4.32 | 5.3 | -8.99 | 4.46

Row | Compound | activity change, negative = inhibition [1] [%] | activity change, negative = inhibition [2] [%] | activity change, negative = inhibition [3] [%] | activity change, negative = inhibition [4] [%] | activity change, negative = inhibition [5] [%]
20 | CCOCCOC1CCN(C(=O)c2cnccn2)CC1 | 0.366 | 1.32 | 2.21 | 0.165 | -10.3
21 | C=CC(=O)N1CCCN(c2cc(NCCC(=O)O)nc(-c3ccccn3)n2)CC1 | 0.641 | 4.65 | 3.9 | -9.17 | -2.29
22 | O=C(Cc1cccs1)N1CCN(c2cc(C(F)(F)F)ncn2)CC1 | -6.46 | -6.28 | -2.39 | -9.69 | -26.6
23 | O=c1c2ccccc2n2c(-c3cccc(Cl)c3)nnc2n1CCc1ccccc1 | -1.08 | 2.53 | 4.54 | -3.1 | -6.93
24 | COc1cc2oc(-c3ccc(O)cc3O)cc2c(OC)c1CC=C(C)C | 1.1 | 8.71 | 6.39 | -3.66 | -5.58
25 | CCN1C(=O)c2cc3ccccc3n2CC1(C)C(=O)NCc1ccccc1OC (stereo not given) | 7.1 | 3.16 | 6.96 | 8.91 | 2.9
26 | COCCN1C(=O)c2cccn2CC1CNS(=O)(=O)c1c(C)noc1C (stereo not given) | -2.96 | -4.02 | -0.345 | -12.6 | -6.07
27 | COC(=O)c1cc2n(n1)CC(C)(C(=O)NC1CCCCC1)N(CCc1ccc(SC)cc1)C2=O (stereo not given) | 1.54 | 0 | 13.1 | 1.04 | 5.89
28 | COc1ccc(C[C@H](NC(=O)[C@@]2(O)C[C@@H](O)[C@H](O)[C@@H](NS(=O)(=O)c3cccc(C(F)(F)F)c3)C2)C(N)=O)cc1 | -1.24 | -1.47 | 0.291 | 1.58 | 1.61
29 | CCc1c[nH]c2ncnc(N3CC[C@](N)(CNC(=O)c4ccc(F)cc4F)C3)c12 | -10.4 | -6.26 | 8.29 | -34.9 | -29.1
30 | CC(C)n1c(=O)c2ccc(C(=O)NC3CCCC3)cc2n2c(=O)n(CC(=O)NC3CCCC3)nc12 | 5.05 | 0 | 3.96 | 4.51 | -0.576
31 | CC(C)c1ccc(-c2cc3n(n2)CC(C)(C(=O)NC2CCCCC2)N(Cc2cccs2)C3=O)cc1 (stereo not given) | -3.33 | 0 | 2.55 | 3.25 | -4.55
32 | CCc1ccc(NC(=O)Cn2nc3n(C(C)C)c(=O)c4ccc(C(=O)NCC(C)C)cc4n3c2=O)cc1 | 6.27 | 0.219 | 10.6 | -1.76 | 5.88
33 | C=C(C)C(=O)OC1CC2(C)OC(=CC2=O)C(=C)CC2OC(=O)C(=C)C12 (stereo not given) | -0.074 | -5.07 | 0.905 | -13.5 | 3.96
34 | Cc1ccc(CNC(=O)c2ncn3c2C(=O)N(C2CC2)C(C)(C(=O)NCc2ccc(F)cc2)C3)cc1 (stereo not given) | -2.97 | 4.8 | 1.01 | -0.249 | -2.27
35 | CCCn1c(=O)c2ccccc2n2c(=O)n(CC(=O)NCc3ccc(OC)cc3)nc12 | -5.05 | 3.09 | 2.19 | -2.48 | -1.62
36 | CC(C)Cn1c(=O)c2ccccc2n2c(=O)n(CC(=O)NC3CCCCC3)nc12 | -1.75 | 3.17 | 0.77 | -3.77 | -4.89
37 | CC(C)CCn1c(=O)c2ccccc2n2c(=O)n(Cc3ccccc3)nc12 | -3.67 | 3.19 | 3.21 | -12 | -3.07
